According to patent US20260070975A1 (SANTA ANA BIO, published 2026):

Tests used:
[1] = biological target: T1, Cynomolgus c-Kit (BLI analyte) (cynomolgus); experiment: BLI (Octet), antibody on capture sensor
T1 construct: also called Cynomoguls c-Kit
Procedure: Further, binding affinities of c-Kit antibodies to human c-Kit and cynomolgus c-Kit were measured by biolayer interferometry ([…]) using an Octect instrument. Briefly, capture sensors were loaded with test antibodies with 3-fold dilutions. The association and dissociation rates to were determined and used to calculate the equilibrium dissociation constant KD (Table 3).

[2] = biological target: T2, His-tagged PDGFRa extracellular domain (UniProt P16234 24-528, limits assumed); experiment: ELISA, His-tagged extracellular domain coated
T2 construct: extracellular domain; also called c-Kit family member; not shown: His tag
T2 sequence (P16234 24-528 limits assumed): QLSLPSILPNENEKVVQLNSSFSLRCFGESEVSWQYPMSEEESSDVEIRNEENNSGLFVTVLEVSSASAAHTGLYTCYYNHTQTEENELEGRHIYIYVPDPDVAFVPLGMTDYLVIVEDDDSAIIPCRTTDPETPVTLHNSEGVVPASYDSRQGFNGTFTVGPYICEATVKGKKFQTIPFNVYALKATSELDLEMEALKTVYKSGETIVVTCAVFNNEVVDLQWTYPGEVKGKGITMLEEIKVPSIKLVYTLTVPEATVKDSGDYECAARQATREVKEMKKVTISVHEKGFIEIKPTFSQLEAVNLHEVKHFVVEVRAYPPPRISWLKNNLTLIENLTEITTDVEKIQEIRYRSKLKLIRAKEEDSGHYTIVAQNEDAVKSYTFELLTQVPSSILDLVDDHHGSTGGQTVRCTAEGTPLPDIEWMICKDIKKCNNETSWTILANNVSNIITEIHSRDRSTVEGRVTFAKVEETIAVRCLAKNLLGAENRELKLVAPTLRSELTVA
Procedure: (§1) His-tagged human c-Kit, His-tagged cynomolgus c-Kit, and His-tagged PDGFRa, PDGFRb, CSF1R, and FLT3 extracellular domains were immobilized on 96 well ELISA plates. Plates were washed with PBST (Phosphate buffered saline+0.05% Tween 20) and blocked for 1 hour with 1% BSA in PBS. Following washing with PBST, mAbs were added to the coated plate and incubated for 2 hours at room temperature. Plates were washed and incubated with HRP-conjugated goat anti-human IgG secondary antibody for 1 hour at room temperature. Following washing, antibody binding was detected colorimetrically by adding 3,3′,5,5′-tetramethylbenzidine (TMB) and incubated at room temperature for 10-20 minutes before adding 2.5N sulfuric acid stopping solution. Absorbance at 450 nm was measured on a plate reader (PerkinElmer). Data was analyzed using GraphPad Prism.

[3] = biological target: T3, His-tagged PDGFRb extracellular domain (UniProt P09619 33-532, limits assumed); experiment: ELISA, His-tagged extracellular domain coated
T3 construct: extracellular domain; also called c-Kit family member; not shown: His tag
T3 sequence (P09619 33-532 limits assumed): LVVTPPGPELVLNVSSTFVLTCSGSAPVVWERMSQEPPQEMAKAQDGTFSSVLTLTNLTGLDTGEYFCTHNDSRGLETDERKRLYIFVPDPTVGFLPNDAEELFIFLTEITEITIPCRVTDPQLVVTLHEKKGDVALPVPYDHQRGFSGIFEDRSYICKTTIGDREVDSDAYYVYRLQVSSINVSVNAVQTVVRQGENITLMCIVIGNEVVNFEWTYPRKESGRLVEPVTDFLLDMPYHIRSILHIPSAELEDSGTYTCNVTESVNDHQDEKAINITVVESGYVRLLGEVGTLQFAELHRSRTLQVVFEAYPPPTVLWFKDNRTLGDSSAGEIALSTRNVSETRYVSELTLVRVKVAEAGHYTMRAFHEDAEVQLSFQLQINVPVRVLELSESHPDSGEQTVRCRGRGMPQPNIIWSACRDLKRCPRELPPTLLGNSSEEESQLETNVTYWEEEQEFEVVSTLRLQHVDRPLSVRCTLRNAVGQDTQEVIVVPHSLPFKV
Procedure: as §1

[4] = biological target: T4, His-tagged CSF1R extracellular domain (UniProt P07333 fragment, limits assumed); experiment: ELISA, His-tagged extracellular domain coated
T4 construct: extracellular domain; also called c-Kit family member; not shown: His tag
T4 sequence (P07333 20-517 limits assumed): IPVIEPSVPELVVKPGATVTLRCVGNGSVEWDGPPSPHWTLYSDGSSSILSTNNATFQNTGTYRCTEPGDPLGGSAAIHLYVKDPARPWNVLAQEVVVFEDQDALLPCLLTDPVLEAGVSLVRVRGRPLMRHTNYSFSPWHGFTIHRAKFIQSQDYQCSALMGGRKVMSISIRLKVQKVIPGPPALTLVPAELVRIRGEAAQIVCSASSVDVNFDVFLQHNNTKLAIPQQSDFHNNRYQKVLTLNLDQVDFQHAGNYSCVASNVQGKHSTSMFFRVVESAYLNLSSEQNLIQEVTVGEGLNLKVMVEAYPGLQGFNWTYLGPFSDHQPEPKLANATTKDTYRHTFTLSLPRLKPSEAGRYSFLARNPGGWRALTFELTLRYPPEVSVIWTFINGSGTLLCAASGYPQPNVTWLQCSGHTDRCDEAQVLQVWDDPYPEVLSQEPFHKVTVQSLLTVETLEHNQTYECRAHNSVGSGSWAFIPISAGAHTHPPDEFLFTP
Procedure: as §1

[5] = biological target: T5, His-tagged FLT3 extracellular domain (UniProt P36888 27-543, limits assumed); experiment: ELISA, His-tagged extracellular domain coated
T5 construct: extracellular domain; also called c-Kit family member; not shown: His tag
T5 sequence (looked up): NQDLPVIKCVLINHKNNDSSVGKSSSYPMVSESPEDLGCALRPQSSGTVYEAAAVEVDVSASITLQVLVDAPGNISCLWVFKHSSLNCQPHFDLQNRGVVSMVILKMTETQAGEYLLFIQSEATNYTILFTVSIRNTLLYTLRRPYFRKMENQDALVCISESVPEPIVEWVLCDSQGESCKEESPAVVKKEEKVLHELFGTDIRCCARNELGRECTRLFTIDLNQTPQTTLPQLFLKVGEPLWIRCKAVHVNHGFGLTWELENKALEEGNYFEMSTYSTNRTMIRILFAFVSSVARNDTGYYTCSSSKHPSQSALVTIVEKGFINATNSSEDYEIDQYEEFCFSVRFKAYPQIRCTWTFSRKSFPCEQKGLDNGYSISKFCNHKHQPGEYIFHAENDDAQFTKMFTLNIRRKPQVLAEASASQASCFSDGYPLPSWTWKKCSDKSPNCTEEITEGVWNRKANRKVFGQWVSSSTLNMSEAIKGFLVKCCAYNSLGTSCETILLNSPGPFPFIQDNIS
Procedure: as §1

- Kd [1]: 3.34 nM
- binding result [2]: no binding
- binding result [3]: no binding
- binding result [4]: no binding
- binding result [5]: no binding
B1: Chimeric anti-c-Kit SR1 (chSR1) (antibody, human IgG1, kappa)
heavy: QVQLQQPGAELVKPGASVKMSCKASGYTFTSYNMHWVKQTPGQGLEWIGVIYSGNGDTSYNQKFKGKATLTADKSSSTAYMQINSLTSEDSAVYYCARERDTRFGNWGQGTLVTVSA[here human IgG1 constant region without letters]
light: NIVLTQSPASLAVSLGLRATISCRASESVDIYGNSFMHWYQQKPGQPPKLLIYLASNLESGVPARFSGSGSRTDFTLTIDPVEADDAATYYCQQNNEDPYTFGGGTKLEIKRTVAAPSVFIFPPSDEQLKSGTASVVCLLNNFYPREAKVQWKVDNALQSGNSQESVTEQDSKDSTYSLSSTLTLSKADYEKHKVYACEVTHQGLSSPVTKSFNRGEC
